Laboratory results published in publication PMC8586658 (Cancer Science, 2021).

What was measured:
[1] = biological target: T1, mouse IL‐2Rα on 293T cells (293Tα) (mouse, UniProt P01590 22-268); assay: binding of NanoLuc fusion proteins to cells
T1 sequence: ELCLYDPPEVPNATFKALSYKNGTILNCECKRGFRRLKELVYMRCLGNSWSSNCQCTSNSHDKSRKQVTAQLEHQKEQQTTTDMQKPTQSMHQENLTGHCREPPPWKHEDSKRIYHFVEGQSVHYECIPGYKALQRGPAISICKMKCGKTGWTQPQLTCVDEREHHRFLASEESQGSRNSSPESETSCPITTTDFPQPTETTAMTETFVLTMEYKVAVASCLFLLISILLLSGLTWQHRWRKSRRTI

[2] = biological target: T2, human IL‐2Rα on 293T cells (293Tα) (human, UniProt P01589 22-272); assay: binding of NanoLuc fusion proteins to cells
T2 sequence: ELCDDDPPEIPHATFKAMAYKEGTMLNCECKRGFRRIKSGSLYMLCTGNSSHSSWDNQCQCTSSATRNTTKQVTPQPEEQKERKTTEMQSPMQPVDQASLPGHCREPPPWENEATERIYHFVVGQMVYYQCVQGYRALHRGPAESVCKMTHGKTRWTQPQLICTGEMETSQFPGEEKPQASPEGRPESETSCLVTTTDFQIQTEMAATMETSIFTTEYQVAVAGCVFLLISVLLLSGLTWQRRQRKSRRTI

B1: MK‐0, aldesleukin‐type IL‐2 (T3A, C125A) fused to NanoLuc (ligand)
chain: not shown
For B1, which “mouse 293Tα/293T ratio” value [1] is on record?
Its value is 1430 ratio.

What about the “human 293Tα/293T ratio” value [2] of the same binder?
The value was 1730 ratio.
